The full ranking holds about 13,000 compounds; the median of “IFI” is about 4, and the highest 2% start at about 17. The list shows a part of the results.
Experiment: GSK_TCMDC: Inhibition Frequency Index (IFI). The number of non-kinase HTS assays where a compound showed > 50 % inhibition, expressed as a percentage of the number of such assays in which the compound was tested (-0 is zero)
Format: functional
For `CN(C)CCCOc1ccc(-c2nc(-c3ccc4c(c3)CCC4=NO)c(-c3ccncc3)[nH]2)cc1`, the IFI was 5.19%. Work on `COc1cc2nc(Nc3ccc(C)cc3)nc(Nc3ccc(C)cc3)c2cc1OC` yielded an IFI of 6.48%. Work on `COc1ccc(-c2ccc(CNCc3ccsc3)cc2)cc1S(=O)(=O)NCCN1CCCC1` yielded an IFI of 6.06%. `O=S(=O)(c1ccccc1Cl)N1CCCCC(c2ccc(C(F)(F)F)cc2)=N1` showed an IFI of 0.73%. With `O=C(Nc1cccc(-c2cccc(-c3nc4cc(F)ccc4[nH]3)c2)c1)Nc1ccc2c(c1)OCO2` the IFI was 5%. In the case of `C=Cc1c(C2CCN(CCCCNC(=O)c3ccc(-c4ccc(C#N)cc4)cc3)CC2)ccc2c1CCCC2`, the IFI is reported as 9.09%. `CCCc1cccc(C)c1OCCCON1C(=N)N=C(N)NC1(C)C` showed an IFI of 7.14%. With `Cc1ccc(-c2nnc(Nc3ccc(CC(N)=O)cc3)c3ccccc23)cc1S(=O)(=O)NCC1CCCO1` (stereo unspecified) the IFI was 0.68%. Compound `CCN(CCNS(C)(=O)=O)c1ccc(N)c(C)c1` has an IFI of 7.32%. For `COC(=O)[C@@H](NC(=O)[C@H](Cc1ccc(OC)c(OC)c1)Nc1ccc(C#N)c2ccccc12)c1ccc(O)cc1`, the IFI was 5.77%. Work on `N=C(N)Nc1nc(-c2cccc(NC(=O)NCC(c3ccccc3)c3ccccc3)c2)cs1` yielded an IFI of 3.88%. `Cc1cccc(C(=O)NCCCN2CCC(NC(=O)/C=C/c3ccc(Cl)c(Cl)c3)CC2)c1` showed an IFI of 10%. In the case of `O=C(NCCCCCN1CCC(c2ccc(O)cc2)CC1)c1ccc(-c2ccccc2)cc1`, the IFI is reported as 2.16%. Compound `Nc1ccc(-c2cnc3[nH]cc(-c4ccc(C(=O)O)cc4)c3c2)cn1` has an IFI of 4.67%. In the case of `COc1ccc2c(NN=Cc3ccccn3)ccnc2c1`, the IFI is reported as 1.41%. Compound `Cn1cnc(CCNC(=O)c2ccc(-c3cccc(-c4nc5ccccc5[nH]4)c3)cc2)c1` has an IFI of 4.72%. `COc1ccc(CN2CCCN(Cc3cccc(NC(=O)c4ccc(Cl)c(Cl)c4)c3)CC2)cc1` showed an IFI of 9.4%. In the case of `Cn1c(NC(=O)CCCCCNC(=O)c2ccc(O)c(-c3ccc(Cl)c(Cl)c3)c2)nc2ccccc21`, the IFI is reported as 2.21%. `Cc1cc(C)cc(CC(=O)N2CCC(n3c(C)nc4ccc(C)cc43)CC2)c1` gave an IFI of 0%. `CCCCN(Cc1cnccc1-c1ccc(Br)cc1)c1ccc(C(O)(C(F)(F)F)C(F)(F)F)cc1` showed an IFI of 2.19%. With `O=C(Nc1ccc(Cl)c(Cl)c1)Nc1ccc2nccc(N3CCN(Cc4ccccc4)CC3)c2c1` the IFI was 8.03%. `N=C1NC(=N)N(OCCCCCCON2C(=N)NC(=N)NC2C=Cc2ccccc2)C(C=Cc2ccccc2)N1` (stereo unspecified) showed an IFI of 3.52%. In the case of `CCN(CC)C(=O)c1cccc(C=Cc2ccc(-c3c(C)[nH]c(C)c(Cl)c3=O)cc2)c1`, the IFI is reported as 1.83%. `Cc1ccccc1CNc1noc(-c2c(F)cccc2Cl)n1` showed an IFI of 2.86%. `O=C(Nc1ccccc1)Nc1cccc(-c2ccc(-c3nc4cc(C(F)(F)F)ccc4[nH]3)cc2)c1` showed an IFI of 4.04%. With `CCCC(C)Nc1nc(C)cc(N[C@@H](CC(C)C)C(=O)NCc2cccc(F)c2)n1` (stereo partly specified) the IFI was 11.4%. Compound `c1cc(CNC2Cc3ccccc3C2)cc(-c2cnc(N3CCNCC3)nc2)c1` has an IFI of 11.5%. With `O=c1ccc2ccc(F)c3c2n1CC3CN1CCC(NCc2ccc(-c3cccc(Cl)c3)nc2)CC1` (stereo unspecified) the IFI was 1.82%. With `C=CCN1Cc2c(O)cccc2C(c2ccc(O)c(O)c2)C1` (stereo unspecified) the IFI was 1.47%. Work on `O=C(Nc1ccc(C(F)(F)F)cc1)Nc1ccccc1N1CCNCC1` yielded an IFI of 13.8%. In the case of `CC(=O)Nc1ccc(NC(=O)c2cc(-c3cc(Cl)ccc3O)n[nH]2)cc1`, the IFI is reported as 1.94%. `CCOC(=O)CC[C@H](NC(=O)c1ccc(NS(=O)(=O)c2ccc(-c3cnc(N)[nH]c3=O)cc2)cc1)C(=O)OCC` gave an IFI of 0.75%. With `COc1ccccc1C(C)NCC(=O)Nc1ccccc1Sc1ccccc1` (stereo unspecified) the IFI was 7.32%. `Cc1cccc(C)c1OC(=O)CSc1nnc(-c2ccccc2O)o1` showed an IFI of -0%. `CN1CCN(CC(=O)Nc2cccc(-c3ccc(-c4nc5cc(C(F)(F)F)ccc5[nH]4)cc3)c2)CC1` showed an IFI of 6.25%. With `OCc1ccc(-c2cncc(Nc3cccc(Cl)c3)c2)cc1` the IFI was 4.62%. In the case of `c1ccc(CN2CCc3cc4nccc(N5CCNCC5)c4cc32)cc1`, the IFI is reported as 7.3%. Work on `COc1ccc2nccc([C@@H](O)CN3CCC(NC(=O)c4[nH]c5ccccc5c4-c4ccccc4)CC3)c2c1` yielded an IFI of 3.65%. Compound `CCCCCN1CCCCC(NS(=O)(=O)c2ccc(C(=O)Nc3ccc(C(F)(F)F)cc3)cc2)C1` (stereo unspecified) has an IFI of 3.61%. Compound `CSc1cccc(Nc2nc3ccc(S(=O)(=O)NC(C)C(C)C)cc3n2[C@H](C)C(C)(C)C)c1` (stereo partly specified) has an IFI of 2.19%. With `Cc1nc(C)c(CC(=O)Nc2ccc(-c3cccc(-c4nc5cc(C(F)(F)F)ccc5[nH]4)c3)cc2)s1` the IFI was 10.6%. Compound `CCOC(=O)/C(=N\OC(C)(C)C(=O)NCc1ccc(O)c(O)c1)c1csc(NC(c2ccccc2)(c2ccccc2)c2ccccc2)n1` has an IFI of 8.03%. In the case of `O=C(/C=C/c1ccc(Cl)c(Cl)c1)NCCCCCN1CCCN(C(=S)Nc2ccc(Cl)cc2)CC1`, the IFI is reported as 6.4%. With `CC(C)(C)N1CCC(N(Cc2ccc(-c3ccc(C(F)(F)F)cc3)cc2)C(=O)Cn2c(CCc3cccc(F)c3F)cc(=O)c3ccccc32)CC1` the IFI was 13.3%. `CN(C)CC(=O)N(Cc1ccc(Cl)c(Cl)c1)Cc1csc(-c2ccc(CNCc3ccccc3)cc2)n1` showed an IFI of 6.76%. For `COc1ccc(Nc2cc(C)nc(NCc3ccc4c(c3)OCO4)n2)cc1`, the IFI was 4.58%. `Cc1cc(N[C@@H](Cc2ccccc2)C(=O)NCc2cccc(F)c2)nc(NCCc2cccs2)n1` showed an IFI of 12.8%. Compound `CC(C)(C)c1ccc2[nH]c(-c3ccc(/C=C/C(=O)NCc4ccc(Cl)c(Cl)c4)cc3)nc2c1` has an IFI of 1.47%. For `CCCN1CCN(Cc2ccc(-c3ccc(-c4nc5ccccc5[nH]4)s3)cc2)CC1`, the IFI was 3.31%. For `NC1=NC2(CCCCC2)N(OCCCCCCCCNc2nc(N)nc(N)n2)C(N)=N1`, the IFI was 1.44%. With `COc1ccccc1COc1c(C)nc(N)nc1N` the IFI was 1.45%. Compound `N#Cc1cccc(NC(=O)c2cccc(S(=O)(=O)NC3CCN(CC4CCCCC4)C3)c2)c1` (stereo unspecified) has an IFI of 4.9%. With `O=C(C=Cc1ccc(Cl)c(Cl)c1)NCCCCCN1CCC(CCCNC(=O)c2ccc3c(c2)OCO3)CC1` the IFI was 6.77%. In the case of `O=C(c1cc(-c2cccs2)n[nH]1)N1CCN(S(=O)(=O)c2ccc(Br)cc2)CC1`, the IFI is reported as 0%. In the case of `CC1(C)NC(N)=NC(=N)N1OCCc1ccc(N)cc1`, the IFI is reported as 2.1%. For `Cc1cccn2c(=O)c3cc(C(=O)NCCN4CCOCC4)c(=N)n(CCc4ccccc4)c3nc12`, the IFI was -0%.

Reference: ChEMBL document CHEMBL1157539, “Thousands of chemical starting points for antimalarial lead identification” (Nature, 2010)
